Results reported in PubChem BioAssay (NCI).
Where “and” joins values, the source holds several entries; their conditions need not be identical. Identical values can stand only once.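 Following 48 hours of exposure in 96-well plates, responses at five concentrations were used to interpolate endpoints linearly. GI50 is the concentration that inhibits growth by half. TGI marks complete inhibition of growth.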

Tested on: NCI-H322M lung
Test: DTP human tumour cell line panel, 48 h

SMILES | GI50 [µM] | TGI
C=C1C(=O)O[C@H]2[C@H]1CC/C(COC(=O)c1cc(OC)c(OC)c(OC)c1)=C\CC[C@@]1(C)O[C@@H]21 | 2.41 | 8.66 µM
C=C1C[C@H]2C=Nc3cc(OCCCOc4cc5c(cc4OC)C(=O)N4CC(=C)C[C@H]4C=N5)c(OC)cc3C(=O)N2C1 | 0.0232 | 
CCCCCC(=O)N[C@@H](c1ccco1)[C@@H](O)C(=O)O[C@H]1C[C@@]2(O)[C@@H](OC(=O)c3ccccc3)[C@@H]3[C@]4(OC(C)=O)CO[C@@H]4C[C@H](O)[C@@]3(C)C(=O)[C@H](OC(C)=O)C(=C1C)C2(C)C | 0.000779 | > 25 µM
CC(C)=CCCC(C)(OC1OC(CO)C(O)C(O)C1O)C1CCC2(C)C1C(O)CC1C3(C)CCC(O)C(C)(C)C3C(OC3OC(CO)C(O)C(O)C3OC3OC(C)C(O)C(O)C3O)CC12C (stereo unspecified) (tested in a mixture with another compound) |  | > 75 µM
COc1ccc(C2=Nc3c(nc(OC)[nH]c3=O)NC(c3ccccc3)C2)cc1 (stereo unspecified) |  | > 100 µM
CSc1nc(=S)[nH]c2c1c(C)nn2-c1ccccc1 |  | > 100 µM
CCCCCCCC/C=C1\CCC(CN(C)C)C1=O (stereo unspecified) |  | 31.2 µM
NC(=O)c1ccc2c(c1)-c1nc-2nc2[n-]c(nc3nc(nc4[n-]c(n1)c1ccc(C(N)=O)cc41)-c1ccc(C(N)=O)cc1-3)c1ccc(C(N)=O)cc21.[Co+2] | > 50 | > 50 µM
CCN(CC)c1ccc2nc3ccc(N=Nc4ccc(N(C)C)cc4)cc3[n+](-c3ccccc3)c2c1 | 0.487 | 5.3 µM
COc1cc[c]([Sn]([c]2ccc(OC)cc2)([c]2ccc(OC)cc2)[c]2ccc(OC)cc2)cc1 | 66.2 | > 100 µM
Cc1ccc(CNc2ccc(Br)cc2)cc1 |  | > 100 µM
CO[C@H]1C[C@@H]2CC[C@@H](C)[C@@](O)(O2)C(=O)C(=O)N2CCCC[C@H]2C(=O)O[C@H]([C@H](C)C[C@@H]2CC[C@@H](OC(=O)C(C)(CO)CO)[C@H](OC)C2)CC(=O)[C@H](C)/C=C(\C)[C@@H](O)[C@@H](OC)C(=O)[C@H](C)C[C@H](C)\C=C/C=C/C=C/1C | 0.21 | > 10 µM
COC(=O)C(=O)C(C(=O)OC)C(=O)C(=O)Nc1c(C)cccc1C (stereo unspecified) |  | > 100 µM
COc1cc(C2c3cc4c(cc3[C@@H](NCCN(C)C)C3COC(=O)[C@H]23)OCO4)cc(OC)c1O (stereo partly specified) |  | 7.25 µM and 18.1 µM
C/C(=C/C(=O)Nc1ccccc1)Nc1onc(C)c1C |  | > 100 µM
